These are yes or no findings as the source states them, for the method shown. In cells and extracts the contact can be indirect. Some binding calls cover weakened binding; strength is not graded here. Where a sequence is shown, tags or fusion partners need not be part of it.
Target: T1, TRIM35-V5 (tripartite motif containing 35, V5-tagged) (human) (UniProt Q9UPQ4)
T1 sequence: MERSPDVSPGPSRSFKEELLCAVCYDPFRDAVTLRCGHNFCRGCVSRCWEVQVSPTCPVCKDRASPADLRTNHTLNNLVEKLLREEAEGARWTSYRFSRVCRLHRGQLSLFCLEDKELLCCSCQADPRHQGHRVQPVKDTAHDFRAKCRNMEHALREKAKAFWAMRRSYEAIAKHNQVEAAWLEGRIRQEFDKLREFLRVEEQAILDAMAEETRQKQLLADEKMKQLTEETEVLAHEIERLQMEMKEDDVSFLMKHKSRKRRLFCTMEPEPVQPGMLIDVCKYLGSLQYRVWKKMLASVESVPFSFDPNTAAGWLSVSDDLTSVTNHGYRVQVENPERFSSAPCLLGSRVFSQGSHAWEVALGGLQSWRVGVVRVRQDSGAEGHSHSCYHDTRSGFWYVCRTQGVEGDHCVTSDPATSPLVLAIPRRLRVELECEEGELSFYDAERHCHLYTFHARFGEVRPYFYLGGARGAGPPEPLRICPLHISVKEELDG
Test: co-IP

By UniProt entry, the sequences of proteins in these tests, tags left out. Residues count along the entry.
UniProt Q7Z434: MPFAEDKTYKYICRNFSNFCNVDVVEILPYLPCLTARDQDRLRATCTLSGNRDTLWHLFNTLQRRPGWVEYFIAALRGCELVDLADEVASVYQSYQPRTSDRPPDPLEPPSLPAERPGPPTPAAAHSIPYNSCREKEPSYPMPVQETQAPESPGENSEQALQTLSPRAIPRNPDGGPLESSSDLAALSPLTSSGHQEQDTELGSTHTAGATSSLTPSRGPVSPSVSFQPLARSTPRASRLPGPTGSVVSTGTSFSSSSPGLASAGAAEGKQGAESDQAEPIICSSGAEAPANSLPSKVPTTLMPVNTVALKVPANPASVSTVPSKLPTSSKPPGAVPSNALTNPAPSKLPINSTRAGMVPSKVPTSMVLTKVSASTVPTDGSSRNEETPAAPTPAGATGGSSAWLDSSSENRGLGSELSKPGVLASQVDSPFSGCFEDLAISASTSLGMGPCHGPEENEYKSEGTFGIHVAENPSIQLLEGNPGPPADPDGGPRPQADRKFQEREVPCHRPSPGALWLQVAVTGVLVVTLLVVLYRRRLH
UniProt P03454, residues 18-565: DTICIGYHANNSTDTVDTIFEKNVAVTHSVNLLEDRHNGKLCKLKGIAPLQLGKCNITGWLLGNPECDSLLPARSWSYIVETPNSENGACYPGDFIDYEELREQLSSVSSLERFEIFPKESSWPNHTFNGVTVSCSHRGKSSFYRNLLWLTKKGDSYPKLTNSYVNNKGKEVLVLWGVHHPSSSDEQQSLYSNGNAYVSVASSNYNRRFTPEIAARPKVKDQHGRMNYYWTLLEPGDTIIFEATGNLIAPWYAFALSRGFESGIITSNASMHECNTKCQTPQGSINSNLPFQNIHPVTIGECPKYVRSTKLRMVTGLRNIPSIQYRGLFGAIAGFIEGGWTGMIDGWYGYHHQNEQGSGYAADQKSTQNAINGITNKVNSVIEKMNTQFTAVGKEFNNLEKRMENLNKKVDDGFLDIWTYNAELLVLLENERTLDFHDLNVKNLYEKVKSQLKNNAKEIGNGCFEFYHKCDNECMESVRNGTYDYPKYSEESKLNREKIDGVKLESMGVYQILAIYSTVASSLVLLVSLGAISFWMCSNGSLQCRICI
UniProt P05777: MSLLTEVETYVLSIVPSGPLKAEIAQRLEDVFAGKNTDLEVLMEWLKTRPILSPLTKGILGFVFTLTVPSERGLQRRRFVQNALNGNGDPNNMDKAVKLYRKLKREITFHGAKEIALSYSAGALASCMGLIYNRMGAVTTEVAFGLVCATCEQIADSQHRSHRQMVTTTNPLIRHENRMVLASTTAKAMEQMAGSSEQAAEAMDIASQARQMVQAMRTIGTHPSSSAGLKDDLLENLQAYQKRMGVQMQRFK
UniProt P03470: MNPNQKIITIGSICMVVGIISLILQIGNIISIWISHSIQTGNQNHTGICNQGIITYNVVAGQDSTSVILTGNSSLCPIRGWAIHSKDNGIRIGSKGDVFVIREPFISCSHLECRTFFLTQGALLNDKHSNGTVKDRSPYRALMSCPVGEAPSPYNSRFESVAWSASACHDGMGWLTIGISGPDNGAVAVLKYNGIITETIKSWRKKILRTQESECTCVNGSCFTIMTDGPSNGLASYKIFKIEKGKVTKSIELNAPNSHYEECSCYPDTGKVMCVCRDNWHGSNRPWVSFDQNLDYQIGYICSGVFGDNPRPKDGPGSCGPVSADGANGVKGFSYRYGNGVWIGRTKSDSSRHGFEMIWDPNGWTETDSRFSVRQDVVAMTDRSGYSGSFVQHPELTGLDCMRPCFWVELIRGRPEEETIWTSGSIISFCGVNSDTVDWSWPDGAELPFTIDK
UniProt P15682: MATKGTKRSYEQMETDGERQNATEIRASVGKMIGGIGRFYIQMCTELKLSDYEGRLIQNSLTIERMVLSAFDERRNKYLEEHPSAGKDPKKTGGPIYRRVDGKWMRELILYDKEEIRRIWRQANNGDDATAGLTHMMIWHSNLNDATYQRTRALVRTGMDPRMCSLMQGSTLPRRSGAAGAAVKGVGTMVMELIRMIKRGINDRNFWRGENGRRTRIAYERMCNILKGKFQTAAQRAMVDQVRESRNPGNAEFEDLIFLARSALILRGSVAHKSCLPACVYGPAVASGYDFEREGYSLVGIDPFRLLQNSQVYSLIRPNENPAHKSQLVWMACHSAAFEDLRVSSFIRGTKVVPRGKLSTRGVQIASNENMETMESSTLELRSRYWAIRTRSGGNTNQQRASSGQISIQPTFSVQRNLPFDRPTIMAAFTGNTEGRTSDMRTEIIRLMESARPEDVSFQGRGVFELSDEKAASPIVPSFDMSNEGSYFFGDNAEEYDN
UniProt P03430: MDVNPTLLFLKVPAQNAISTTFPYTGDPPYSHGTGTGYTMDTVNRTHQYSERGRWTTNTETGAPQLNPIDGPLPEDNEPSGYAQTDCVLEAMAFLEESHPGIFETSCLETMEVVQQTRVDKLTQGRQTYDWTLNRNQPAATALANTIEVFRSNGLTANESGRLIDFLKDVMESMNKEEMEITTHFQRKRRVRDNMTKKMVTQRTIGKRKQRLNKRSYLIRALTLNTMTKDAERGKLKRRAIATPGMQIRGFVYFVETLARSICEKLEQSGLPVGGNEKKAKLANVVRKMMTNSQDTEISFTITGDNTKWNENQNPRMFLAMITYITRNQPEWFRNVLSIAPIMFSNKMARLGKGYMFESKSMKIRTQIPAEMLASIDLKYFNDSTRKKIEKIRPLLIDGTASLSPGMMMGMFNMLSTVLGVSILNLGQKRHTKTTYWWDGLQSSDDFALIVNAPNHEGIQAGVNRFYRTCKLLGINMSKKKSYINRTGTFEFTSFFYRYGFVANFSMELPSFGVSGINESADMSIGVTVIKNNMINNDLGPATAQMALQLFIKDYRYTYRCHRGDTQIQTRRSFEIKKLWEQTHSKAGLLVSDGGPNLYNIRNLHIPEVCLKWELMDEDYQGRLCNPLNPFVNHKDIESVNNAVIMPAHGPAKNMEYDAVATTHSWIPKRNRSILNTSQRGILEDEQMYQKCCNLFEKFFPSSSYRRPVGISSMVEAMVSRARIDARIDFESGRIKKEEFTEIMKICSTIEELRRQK
UniProt P03427: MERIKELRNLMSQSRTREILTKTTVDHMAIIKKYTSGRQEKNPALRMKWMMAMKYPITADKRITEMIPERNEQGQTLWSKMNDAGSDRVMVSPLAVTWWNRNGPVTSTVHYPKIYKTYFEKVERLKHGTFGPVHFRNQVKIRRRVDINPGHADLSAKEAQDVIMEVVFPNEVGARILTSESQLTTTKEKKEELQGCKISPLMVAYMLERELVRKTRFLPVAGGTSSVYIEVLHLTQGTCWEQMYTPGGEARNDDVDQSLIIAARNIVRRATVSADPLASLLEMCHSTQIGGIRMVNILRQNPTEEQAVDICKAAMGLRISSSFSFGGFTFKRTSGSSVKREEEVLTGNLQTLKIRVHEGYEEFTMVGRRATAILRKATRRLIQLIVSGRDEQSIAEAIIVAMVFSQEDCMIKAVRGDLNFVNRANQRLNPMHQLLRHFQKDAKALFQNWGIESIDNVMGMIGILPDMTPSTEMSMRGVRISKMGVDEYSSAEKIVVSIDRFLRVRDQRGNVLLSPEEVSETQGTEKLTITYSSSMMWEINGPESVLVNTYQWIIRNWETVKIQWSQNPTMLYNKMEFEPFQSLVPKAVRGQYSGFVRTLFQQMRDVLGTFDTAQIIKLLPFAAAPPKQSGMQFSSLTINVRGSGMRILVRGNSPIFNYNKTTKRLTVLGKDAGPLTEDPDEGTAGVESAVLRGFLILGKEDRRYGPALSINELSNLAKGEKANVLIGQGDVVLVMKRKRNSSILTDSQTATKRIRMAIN

Question: “VISA-Flag (virus-induced signaling adapter, Flag-tagged) (from UniProt Q7Z434 1-540)” was tested. Which binding did it give?
Answer: no binding

Question: “WSN (H1N1) HA, Flag-tagged (from UniProt P03454)” was tested. Which binding did it give?
Answer: no binding

Question: With “WSN (H1N1) M1, Flag-tagged (from UniProt P05777 1-252)” as the substance, how does the binding read?
Answer: no binding

Question: “WSN (H1N1) NA, Flag-tagged (from UniProt P03470 1-453)” was tested. Which binding did it give?
Answer: no binding

Question: How did the binding turn out when “WSN (H1N1) NP (nucleoprotein) (from UniProt P15682 1-498)” was run?
Answer: no binding

Question: “WSN (H1N1) PB1 (polymerase basic protein 1) (from UniProt P03430 1-757)” was tested. Which binding did it give?
Answer: no binding

Question: For “WSN (H1N1) PB2 (polymerase basic protein 2), expressed from pCAGGS (from UniProt P03427 1-759)”, which binding is on record?
Answer: binds
